Measurements taken from PubChem BioAssay AID588855 (National Center for Advancing Translational Sciences (NCATS), 2011).
Screen size: about 410,000 compounds; about 5,000 (1.2%) were called active. The inconclusive results got no clear call from the source; some entries with a clear call stand among them for comparison. The call rests on the fitted dose curve; in most records, active means well fitted inhibition curve with a large enough effect; inconclusive means small, poorly fitted or top-dose-only effect; inactive means no such curve, though single readings can be large or run the other way. Potencies of inconclusive entries are doubtful fits and often do not repeat.

Assay: qHTS for Inhibitors of TGF-b; further: nearly all actives have a fitted effect of over 65% in size
Details: HepG2 CAGA-GFP TGF-b/SMAD3 reporter, GFP fluorescence, 18 h, TGF-beta stimulated, 500 pg/mL final; series mostly up to 46.1 µM
In short: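 Using HEPG2 CAGA-GFP reporter cells at 1000 cells/well, we pinned test compounds, stimulated with recombinant TGF-beta (500 pg/mL final) and measured total well GFP after 18 h.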
Potency means the concentration at half of the fitted maximal effect; tags describe the fitted curve by direction and shape.

| Structure (SMILES) | Potency |
| --- | --- |
| O=C(c1ccc2c(c1)C(=O)N(Cc1ccncc1)C2=O)N1CCN(S(=O)(=O)c2ccc(OC(F)(F)F)cc2)CC1 | inconclusive: 0.891 µM [inhibitor, full curve, poor fit] |
| Cc1ccc(S(=O)(=O)N2CCN=C2SCc2ccc(Cl)c(Cl)c2)cc1 | inconclusive: 0.562 µM [inhibitor, full curve, poor fit] |
| CC(NC(=O)c1cccs1)c1ccc(Br)cc1 (stereo not drawn) | inactive |
| O=C(OCc1nnc(-c2ccccc2)o1)c1cccc(-n2cnnn2)c1 | inconclusive: 3.98 µM [inhibitor, single point] |
| CCc1ccc(NC(=O)CSc2nc(=O)n(Cc3ccco3)c3c2CCC3)cc1 | inconclusive: 35.5 µM [inhibitor, single point] |
| CS(=O)(=O)c1sc(C(=O)NC(=S)Nc2ccc(OC(F)(F)F)cc2)c2c1C=CCC2 | inconclusive: 25.1 µM [inhibitor, partial curve, poor fit] |
| Cc1[nH]c2ccccc2c1C(C[N+](=O)[O-])c1cccc(O)c1 (stereo not drawn) | inconclusive: 35.5 µM [inhibitor, single point] |
| CCCc1ccccc1OCCNS(=O)(=O)c1cc2c(cc1C)OCC(=O)N2 | inconclusive: 25.1 µM [inhibitor, single point] |
| COC(=O)c1cc(=O)n(-c2ccc(C(F)(F)F)cc2)[nH]1 | inconclusive: 35.5 µM [inhibitor, single point] |
| O=C(Nc1ccc(N=Nc2ccccc2)c(NC(=O)C2CCCO2)c1)C1CCCO1 (stereo not drawn) | inactive |
| O=C(N=Nc1c(O)[nH]c2ccccc12)c1ccco1 | inactive |
| O=C1C=C(c2n[nH]nc2-c2ccccc2)C[C@@H](c2ccc(F)cc2)C1 | inconclusive: 35.5 µM [inhibitor, single point] |
| COc1ccc(Cl)c2c1[nH]c1nc(SCc3ccccn3)nnc12 | inconclusive: 8.91 µM [inhibitor, partial curve] |
| CC1=C(C(=O)Nc2ccccc2C)C(c2ccccn2)n2nc(SCc3ccccc3F)nc2N1 (stereo not drawn) | inconclusive: 0.316 µM [inhibitor, full curve, poor fit] |
| O=C(CCc1ccc(O)cc1)c1c(O)cc(O)cc1O | inconclusive: 5.62 µM [inhibitor, single point] |
| CN(Cc1ccccc1)Cc1c(O)ccc2ccccc12 | inconclusive: 11.2 µM [inhibitor, single point] |
| COc1ccc2sc(-c3ccc(SC)cc3)c(C#CCO)c2c1 | inconclusive: 15.8 µM [inhibitor, single point] |
| CCOC(=O)Cc1ccc(NC(=O)N2CC(CC)Oc3ccccc32)cc1 (stereo not drawn) | inactive |
| COc1ccc(/C(C)=N/N=C(N)N)c(OC)c1 | inactive |
| COc1cc(/C=N/NC(N)=S)cc(Br)c1OCc1ccccc1F | inconclusive: 12.6 µM [inhibitor, partial curve, poor fit] |
| Cc1nc2c(nc1C)C(=O)c1ccccc1C2=O | active: 2.24 µM |
| Cc1ccc(NS(=O)(=O)c2ccc(-n3cccn3)cc2)cc1F | inconclusive: 12.6 µM [inhibitor, partial curve, poor fit] |

| Structure (SMILES) | Potency |
| --- | --- |
| Cn1c(=O)c2[nH]c(NN=Cc3cccc(Br)c3)nc2n(C)c1=O | inactive |
| O=C(CSc1ncnc2c1oc1ccccc12)Nc1cccc(C(F)(F)F)c1 | inconclusive: 35.5 µM [inhibitor, single point] |
| O=C(CCCc1ccccc1)Nc1nncs1 | inconclusive: 3.55 µM [inhibitor, single point] |
| CCOc1ccccc1NC(=O)C(C)N1C(=O)c2ccccc2S1(=O)=O (stereo not drawn) | inactive |
| Cc1ccc(-c2nc3c4ccccc4n(Cc4cccc(Cl)c4)c(=O)n3n2)cc1 | inactive |
| O=C(CSC1=NNC(c2ccccn2)S1)Nc1ccc(C(F)(F)F)cc1 (stereo not drawn) | inconclusive: 2.82 µM [inhibitor, full curve] |
| N#Cc1ccc(NCC(=O)Nc2ccc(S(=O)(=O)N3CCCCC3)cc2)cc1 | inconclusive: 35.5 µM [inhibitor, single point] |
| O=C(N[C@@H]1C/C=C\C[C@H](CC(=O)N(CCO)Cc2ccccc2)C(=O)NC[C@@H](c2ccccc2)OC1=O)OCC1c2ccccc2-c2ccccc21 | active: 7.94 µM |
| O=C(NCc1cccc(F)c1)Nc1nnc([C@H]2C[C@H](O)[C@@H](CO)O2)s1 | inactive |
| CCC(C)Sc1ccc([C@H]2N[C@@](Cc3ccccc3)(C(=O)OC)[C@H]3C(=O)N(C)C(=O)[C@@H]23)cc1 (stereo partly drawn) | inconclusive: 17.8 µM [inhibitor, partial curve, poor fit] |
| Cc1ccc(NCC(=O)N/N=C\c2ccc([N+](=O)[O-])o2)cc1 | active: 11.2 µM |
| CCCCSc1nc2ccc(Nc3nc(N4CCOCC4)nc(N4CCOCC4)n3)cc2s1 | inactive |
| CC1Cc2ccccc2N1C(=O)CCN1C(=O)C2C3C=CC(C3)C2C1=O (stereo not drawn) | inactive |
| Cc1cc(C)cc(N2CCn3c2nc2c3c(=O)n(CCc3ccccc3)c(=O)n2C)c1 | inactive |
| Cn1c(=O)[nH]c(=O)c2c1nc(N1CCN(C(c3ccccc3)c3ccccc3)CC1)n2CCO | inconclusive: 7.08 µM [inhibitor, full curve, poor fit] |
| Cc1cc2[nH]c3c4ccccc4nc(C)c3c2cc1C | active: 12.6 µM |
| Cc1ccc(S(=O)(=O)c2c(N)n(CCC(C)C)c3nc4ccccc4nc23)cc1 | inconclusive: 25.1 µM [inhibitor, single point] |
| COc1ccc(-n2nnnc2/C=C/Nc2cc(C(F)(F)F)ccc2OC)cc1 | inconclusive: 35.5 µM [inhibitor, single point] |
| COc1ccc(NS(=O)(=O)c2ccc(NS(=O)(=O)c3ccc4c(c3)OCCO4)cc2)cc1 | inconclusive: 7.08 µM [inhibitor, partial curve, poor fit] |
| Cc1occc1-c1nnc(-c2cc([N+](=O)[O-])cc([N+](=O)[O-])c2)o1 | inconclusive: 22.4 µM [inhibitor, partial curve, poor fit] |
| CN(C)S(=O)(=O)c1ccc(C(=O)N2CCN=C2SCc2cccnc2)cc1 | inconclusive: 35.5 µM [inhibitor, single point] |
